From patent US20030211998A1, “Novel seventeen amino acid peptide (Peptide P) for treating ischemia and reperfusion injury” (UNIVERSITY OF KENTUCKY RESEARCH FOUNDATION, priority 2001, published 2003)

Test system: mice subjected to 1 hour focal middle cerebral arterial occlusion (MCAO) ischemia
Test: Murine ischemia/reperfusion model: MABP, pO2, pCO2, pH, rectal temperature
Details: post ischemia

CC[C@H](C)[C@H](NC(=O)[C@H](CO)NC(=O)[C@H](Cc1c[nH]cn1)NC(=O)[C@H](Cc1ccccc1)NC(=O)[C@H](Cc1ccccc1)NC(=O)[C@H](CC(=O)O)NC(=O)CNC(=O)[C@@H](NC(=O)[C@@H](NC(=O)[C@H](CO)NC(=O)[C@H](C)NC(=O)[C@@H](NC(=O)[C@H](CC(=O)O)NC(=O)[C@H](C)NC(=O)[C@H](Cc1ccccc1)NC(=O)[C@@H](C)NC(=O)[C@@H](N)Cc1ccc(O)cc1)C(C)C)[C@@H](C)O)[C@@H](C)CC)C(N)=O [Peptide P, Tyr-D-Ala-Phe-Ala-Asp-Val-Ala-Ser-Thr-Ile-Gly-Asp-Phe-Phe-His-Ser-Ile-NH2]
differences in MABP, pO2, pCO2, pH or rectal temperature versus control animals: no significant differences
